This note sets out measurements from the RNAGym collection of RNA variant scans (doi:10.1093/nar/gkz1192).

The source gives no read counts; variants with many changes may rest on few reads.

B1: CPEB3 Ribozyme (parent)
chain: UAACAGGGGGCCACAGCAGAAGCGUUCACGUCGCAGCCCCUGUCAGAUUCUGGUGAAUCUGCGAAUUCUGCUGUAUAUCUC

Variants of B1 are the subject of the data set. Briefly: self-cleavage, relative activity (ratio to wild type); higher = more cleavage; in vitro, sequencing. An outline of the steps: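 Barcoded CPEB3 ribozyme mutants, produced by rounds of error-prone PCR, self-cleaved while being transcribed with T7 RNA polymerase for 5 hours at 37°C and during a subsequent 15 min DNase I step before EDTA was added. Sequencing of template-switched cDNA on Illumina gave cleaved and total reads, and DNA sequencing assigned barcodes to variants. Each variant's relative activity is its cleaved/total read fraction divided by the unmutated ribozyme's fraction, averaged across three batches. A variant needed a minimum of 5 reads.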
For the variant G9A A18U G22U U48C U66C, the self-cleavage worked out at 0.07. As for G8A U43C G46C, the self-cleavage is 0.19.

Take G9U A28G U51C: the self-cleavage is 0.21. Turning to G8A U48C U78C, the self-cleavage came to 0.32. For G8A C32G A35G C40A G46U A56G, the self-cleavage is 0.05. In the case of G8U A20G U41C A64G A77G, the self-cleavage was found to be 0.13. Next, G8A C37U A47G G52U U54C A57C U69G: 0.04. Next, G9U U66C U78G: 0.05. Next, G9A A15U U26C C38G G46U U80G: 0.03; G9A A18U U26C A57G: 0.11; G9A U72A A77G: 0.46. For G9A U60A U67C, the self-cleavage was 0.05.

For the variant G9C A13G C29U A65G, the self-cleavage worked out at 0.03. As for G9U A20U G33C A45U U69A U72G, the self-cleavage amounted to 0.02. Consider G9A A18U A56U C62U, for which the self-cleavage was determined as 0.06. As to G8U A20U U25C A35U A47G U49C U72C, the self-cleavage stood at 0.05. On to G8U G33A C38A A47G G63A, for which the self-cleavage came out at 0.12. Regarding G8C G19A A28G U43C, the self-cleavage came out at 0.06. As to G9A A21G U26C U54A, the self-cleavage amounted to 0.08.

For G8A U31A G33C A57G U60A, the self-cleavage turned out to be 0.06. In the case of G9A C11A A57U, the self-cleavage was found to be 0.09. On to G9A U41A A45U, for which the self-cleavage was 0.2.

In the case of G8A U25A A47G A77G, the self-cleavage was 0.07.

Consider G9A A56G A57G A64G, for which the self-cleavage was determined as 0.13.

Consider G8A U43A U78G, for which the self-cleavage was determined as 0.26. With G8A U69A U80A, the self-cleavage was determined as 0.24.

With G8U A15G A35G U48C U54C A56U, the self-cleavage is 0.17. For G8A U43C A45G U66C the value was 0.08. Regarding G9U C12U A35G U76C, the self-cleavage amounted to 0.24. Next, G9A A28U U41C U67G U72C: 0.04; G8A U66C U72C: 0.07.

In the case of G10A A18U A45U C62U A64U, the self-cleavage came to 0.14. With G9A C32G C40U U54A U78A, the self-cleavage stood at 0.05. Regarding G9U A15C G30U, the self-cleavage is 0.13. For G9U A21G C23A, the self-cleavage is 0.12. Next, G10A A18G G52A A64C: 0.05; G9U A18G A45G G63C: 0.04.

For the variant G8U A35G U43C U54A, the self-cleavage stood at 0.08. For G9C G53C U80C the value was 0.16; for G8U A35U U49C A65C U67C, 0.07. Take G8U U31A U51C U58C G61U U69A: the self-cleavage turned out to be 0.04. For G9U C38U U41A U54G U78C, the self-cleavage turned out to be 0.06. As for G8U A35G U54G A64G G70A, the self-cleavage was 0.13. Next, G9U A15G G73A U80G: 0.37; G9A A21G A47U U60A: 0.05. With G9U C29U A35G U67C, the self-cleavage stood at 0.1.

G8A G10A A56G U66C U80C: the self-cleavage turned out to be 0.04. Take G9A C38G A57U: the self-cleavage came out at 0.13.

As for G8U U67C U72A, the self-cleavage is 0.1. For G10A A13U A45G the value was 0.06. Next, G9A A15G A18U A45C U67C U72A U74A: 0.03.

As for G10A A18U A21G U43A A64C, the self-cleavage is 0.11. For G9A U26C U43A U60A G61A C62U, the self-cleavage came to 0.13. Take G9U U48C A65G U72C: the self-cleavage turned out to be 0.05. On to G8U A57C U67A C68U U72C, for which the self-cleavage came to 0.14. Next, G8A C29U U60A: 0.18; G10A A18G C32U U41C U51A U74C: 0.16. In the case of G9A A13G A20U A47U U60C, the self-cleavage was 0.31. As to G9U C34U U41C U60C A65G, the self-cleavage is 0.05.

As to G9U A15G C38U U69C, the self-cleavage was 0.07. Take G10A A15G U26C G36A C40U A56G: the self-cleavage was found to be 0.04.

For G9A A45G U54C A64G A65U, the self-cleavage is 0.14.

Regarding G8U A20G A28U U60C, the self-cleavage amounted to 0.31. For G10A A15G A57G the value was 0.28; for G8U A13U A45G A56C U80C, 0.05. As for G9A A13G A64G, the self-cleavage amounted to 0.07.

For G9U U41A A56G U58C, the self-cleavage turned out to be 0.18.

On to G9A A15U U41C U48C, for which the self-cleavage amounted to 0.08. On to G8U G9A A13U A45U A57G, for which the self-cleavage came out at 0.09.

Regarding G9U U67C U72C, the self-cleavage came out at 0.06. For G9U A13G A45G A77G the value was 0.06. For the variant G9C A64G U76C, the self-cleavage was found to be 0.2.

As to G9A A57U C59A, the self-cleavage was found to be 0.19.

On to G8A U54C U67C, for which the self-cleavage was 0.11.

For the variant G9A A15U A35U A65G, the self-cleavage amounted to 0.05.

As to G8U U26C A28G, the self-cleavage turned out to be 0.1. Turning to G9A U41A C68A, the self-cleavage stood at 0.04. On to G10A A13U C79U, for which the self-cleavage is 0.4. As for G9A U67C A77G, the self-cleavage came to 0.29. As to G9A C34U U51G C68U U74A, the self-cleavage came to 0.16.

Consider G9U C44U A77G, for which the self-cleavage is 0.1.

As for G8U G9A U49C A57G U80C, the self-cleavage is 0.06.

Turning to G8C U25A A57G U78C, the self-cleavage came out at 0.1.

With G8U A20U A35U U48C C62U, the self-cleavage stood at 0.04.
